The target in assay [1] is T1, Boi1CCG (S. cerevisiae) (UniProt P38041).
T1 sequence: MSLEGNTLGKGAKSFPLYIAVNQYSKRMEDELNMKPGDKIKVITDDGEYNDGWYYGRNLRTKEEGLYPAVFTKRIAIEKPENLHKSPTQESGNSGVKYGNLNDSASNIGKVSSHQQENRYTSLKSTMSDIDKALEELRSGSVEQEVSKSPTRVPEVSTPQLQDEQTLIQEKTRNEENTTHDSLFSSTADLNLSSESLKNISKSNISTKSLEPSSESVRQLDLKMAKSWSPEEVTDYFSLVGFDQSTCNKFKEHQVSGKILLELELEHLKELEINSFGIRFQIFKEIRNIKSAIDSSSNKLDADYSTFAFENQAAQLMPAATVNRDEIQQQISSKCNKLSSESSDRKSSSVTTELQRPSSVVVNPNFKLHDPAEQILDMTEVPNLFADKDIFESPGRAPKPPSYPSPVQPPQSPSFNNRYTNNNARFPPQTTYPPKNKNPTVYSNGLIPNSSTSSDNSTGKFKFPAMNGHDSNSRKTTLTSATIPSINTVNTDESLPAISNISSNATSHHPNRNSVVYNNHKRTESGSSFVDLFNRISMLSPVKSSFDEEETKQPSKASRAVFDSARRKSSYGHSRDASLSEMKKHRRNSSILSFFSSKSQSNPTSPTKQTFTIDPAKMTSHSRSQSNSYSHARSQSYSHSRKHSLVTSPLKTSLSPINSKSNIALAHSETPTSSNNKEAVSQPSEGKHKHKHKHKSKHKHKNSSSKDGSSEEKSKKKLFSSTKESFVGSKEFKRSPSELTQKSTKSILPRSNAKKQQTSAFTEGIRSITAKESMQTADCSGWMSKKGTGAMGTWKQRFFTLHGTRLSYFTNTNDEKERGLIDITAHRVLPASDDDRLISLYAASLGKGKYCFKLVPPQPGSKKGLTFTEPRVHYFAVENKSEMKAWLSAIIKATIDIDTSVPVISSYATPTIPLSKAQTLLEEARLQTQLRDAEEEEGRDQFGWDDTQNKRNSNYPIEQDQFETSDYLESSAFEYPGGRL
Briefly: split reporter; SPLIFF as a9, measured at the bud neck from completion of acto-myosin ring contraction until abscission (PCDIII).

The target in assay [2] is T1, Boi1CCG (S. cerevisiae). Kind of assay: split reporter; SPLIFF as a9, measured at the cell front during bud site assembly and bud growth (PCDII).
The target in assay [3] is T2, GST-Bud6_(1-364) (S. cerevisiae) (UniProt P41697).
T2 sequence: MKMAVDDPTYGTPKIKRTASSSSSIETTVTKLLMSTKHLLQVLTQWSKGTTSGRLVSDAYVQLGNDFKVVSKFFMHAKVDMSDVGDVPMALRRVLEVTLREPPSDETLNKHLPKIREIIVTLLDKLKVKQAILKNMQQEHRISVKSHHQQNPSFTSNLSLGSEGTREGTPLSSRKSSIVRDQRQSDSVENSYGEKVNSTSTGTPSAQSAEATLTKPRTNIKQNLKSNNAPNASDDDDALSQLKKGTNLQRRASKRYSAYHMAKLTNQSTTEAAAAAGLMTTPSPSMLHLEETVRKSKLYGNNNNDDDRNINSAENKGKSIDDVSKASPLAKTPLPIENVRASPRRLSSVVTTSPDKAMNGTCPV
Kind of assay: pull-down; GST fusions immobilised on glutathione sepharose beads from E. coli extracts, incubated 1 h at 4°C with yeast cell extracts; glutathione eluates blotted (anti-GFP or anti-Myc); only the target purified.

For assay [4], the target named is T3, GST-Nbp2 (S. cerevisiae) (UniProt Q12163).
T3 sequence: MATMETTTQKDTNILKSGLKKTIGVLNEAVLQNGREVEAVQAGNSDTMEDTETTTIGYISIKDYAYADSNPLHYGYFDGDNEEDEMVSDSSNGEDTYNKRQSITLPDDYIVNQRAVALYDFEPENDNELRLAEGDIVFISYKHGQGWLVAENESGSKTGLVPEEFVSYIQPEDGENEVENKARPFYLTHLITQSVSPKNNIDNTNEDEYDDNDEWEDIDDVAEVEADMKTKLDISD
The assay is described as above.

Results are given in words; binding and its absence hold for the method and conditions named. In cells and extracts the contact can be indirect. Some entries that bind do so weakly or less than the wild type. For some assays here: Where a sequence is shown, tags or fusion partners need not be part of it.

B1: Boi1CCG (protein, UniProt P38041 1-980)
chain: T1 sequence
On to B1, for which the values for the binding result in assay [1] and in assay [2] were “no binding (condition: during PCDIII (abscission))” and “binds”, respectively.

B2: Boi1-GFP (protein, UniProt P38041 1-980)
chain: T1 sequence
For the molecule B2, the binding result in assay [3] was “binds”.

B3: Ste20_(F470L P475T) 9xMyc fusion (protein, UniProt Q03497 1-939)
chain: MSNDPSAVSELPDKDSLDNGISNDNERAMGGNGDGGDGLRLPRTTGTLNVNALQKGTNAAHEAGGYKSMDPAKNAETTNDDDNNVVSLDDPIQFTRVSSSSVISGMSSSMSPHSNIDETKSLEAVTPNINTSNITPDHSADNTFSTINASESDHQFNDTLLSKLSLTDSTETIENNATVKHQQPVASSTVNSNKSSTDIRRATPVSTPVISKPSMTTTPRQINSASHSLSNPKHKQHKPKVKPSKPEAKSKPVSVKKSFPSKNPLKNSSPPKKQTEKSYYSSSSKKRKSGSNSGTLRMKDVFTSFVQNIKRNSQDDKRASSSSNNSSSSSITTALRISTPYNAKHIHHVGVDSKTGEYTGLPEEWEKLLTSSGISKREQQQNMQAVMDIVKFYQDVTETNGEDKMFKTFNTTTGLPGSPQVSTPPANSFNKFPPSTSDSHNYGSRTGTPMSNHVMSPTLNTDSSSANGKLIPSRTAPKPPSSASASAPIIKSPVMNSAANVSPLKQTHAPTTPNRTSPNRSSISRNATLKKEEQPLPPIPPTKSKTSPIISTAHTPQQVAQSPKAPAQETVTTPTSKPAQARSLSKELNEKKREERERRKKQLYAKLNEICSDGDPSTKYANLVKIGQGASGGVYTAYEIGTNVSVAIKQMNLEKQPKKELIINEILVMKGSKHPNIVNFIDSYVLKGDLWVIMEYMEGGSLTDVVTHCILTEGQIGAVCRETLSGLEFLHSKGVLHRDIKSDNILLSMEGDIKLTDFGFCAQINELNLKRTTMVGTPYWMAPEVVSRKEYGPKVDIWSLGIMIIEMIEGEPPYLNETPLRALYLIATNGTPKLKEPENLSSSLKKFLDWCLCVEPEDRASATELLHDEYITEIAEANSSLAPLVKLARLKKVAENMDADEDNDDDNDNEHINKTNNCDDNNDSKETVNLDVTEDDKQK
For the molecule B3, the binding entry in assay [4] is “binds”.

B4: Boi2-GFP (protein, UniProt P39969 1-1040)
chain: MSNDREVPTLSQLNTTVSRDKDVSDTLSPDFDSKGSATGRDGGNFPMYIAINEYFKRMEDELDMKPGDKIKVITDDEEYKDGWYFGRNLRTNEEGLYPVVFTQKITVEKAPTLMRAKSTKRIYSPLTNEDPLLSSTFISENDSNSELPTPQPIETAASISRTANGKIERNLSLKNTMSDIDNALLEFKDDSIGPPDRFINSGRDEEHSITHETILSATDGLDVVESNSKPTTSSSTGFLNGDLENQATLINGIDTTKLNPVEAEFWSPEEITAYFIMEGYDVQSASRFQKHKISGKILLELELVHLKELDINSFGTRFEIFKEIEKIKEAIRTNGRSLNRASKTNNANIYNQLMPPANVDQRASYRGHVRKTSQSLEDLPSQQNFIPTPRNTRNSSASKHRPKSLVFDSQEANANIAPDVQIPQVVEEMAGNENLFVSPRRAPKPPSYPSPAQPPKSPLLNNTRTSPSPAQLYSWQSPTLSFSGPKRTSYIDQYSSSDSNFNSRSALPKNNQGGGKALSPIPSPTRNSVRNEDSEGKLTSSSKRNSVPYYGYAPESSSDRKSSCSSHEEEQFQETMNTFERPTSSIYADGSTIASISNDKLAHEKEGKKKPTRHSSSLSSKSKSDSRRNSSLKRSSSASRTSSFKKSSFMLSPFRQQFTDNAARSSSPEENPITSMPSEKNSSPIVDKKSSKKSRSKRRSVSAKEAEIFTETVKDDKNKRSASEAIKGETLKGKSLRQMTARPVAKKKQTSAFIEGLRSISVKEAMKDADFSGWMSKKGSGAMSTWKTRFFTLHGTRLSYFSSTTDTRERGLIDITAHRVVPAKEDDKLVSLYAASTGKGRYCFKLLPPQPGSKKGLTFTQPRTHYFAVDNKEEMRGWMAALIKTTIDIDTSVPIISSYTTPTVSLSKAQEMLAEAREETKLREQQMLENEEDEDQFLWDQQQLQQQQHDNNQGQADRTISASTQRTSDEDNTISTPNLSSANNTTIGSNGFSSPFLLASGLLSPGVARNSSMRGTEKKGKFSTEEDYFGDNSKHKTDKI
For the molecule B4, in assay [3], the binding result is recorded as “binds”.

(Values after PMC7409549, “A time-resolved interaction analysis of Bem1 reconstructs the flow of Cdc42 during polar growth” (Life Science Alliance, 2020).)
